Reference: the supplement of paper PMC4723716
± gives the uncertainty stated by the source. The full ranking holds about 9,900 compounds; the median of “viability index relative to DMSO control” is about 1, and the lowest 2% start at about 0.85. The list shows a part of the results.

Each compound was assayed on Plasmodium falciparum NF54 stage V gametocytes (assay: viability index relative to DMSO control (fraction); higher = less gametocyte killing). Details: 2.5 µM, library set: Broad Institute DOS, incubation time: 72 h.
In short: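 P. falciparum NF54 stage V gametocytes (serum-free medium, 0.75% gametocytemia, 1.25% hematocrit) were exposed to compound at 2.5 µM for 72 hr at 37°C under low oxygen, then stained with MitoTracker Red CMXRos and saponin for one to two hours. Red particles of 20–70 µm2 in one field per well were counted, and the viability index is that count scaled to the plate mean of solvent-only wells.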

SMILES	viability index
CN(C)C(=O)c1ccc(-c2ccc([C@@H]3[C@@H]4CN(Cc5ccc6c(c5)OCO6)C[C@H]3N4)cc2)cc1	1.05 ± 0.098
CO[C@@H]1CC[C@H]2CCOc3c(C#N)cccc3C(=O)N(C)CCCC(=O)N(C)C[C@@H]1O2	1.01 ± 0.015
COc1ccc2c3c([nH]c2c1)[C@H](CO)N(C[C@]31CCN(CC2CCCC2)CC1)C(=O)CN1CCOCC1	1.04 ± 0.026
CN(C)CC(=O)N[C@H]1C=C[C@@H](CC(=O)NCc2ccc(Cl)cc2)O[C@H]1CO	1.11 ± 0.071
O=C(CCN1CCCCC1)NCC[C@@H]1CC[C@@H](NS(=O)(=O)c2cccc(Cl)c2)[C@H](CO)O1	0.981 ± 0.028
CCc1cnc(N2[C@H](CO)[C@@H](c3ccc(-c4cccc(F)c4)cc3)[C@@H]2C#N)s1	1.0485 ± 0.00086
COc1ccccc1C(=O)Nc1ccc2c(c1)C(=O)N(C)C[C@@H](OC)[C@@H](C)CN(C(C)=O)[C@@H](C)CO2	1.06 ± 0.011
Cc1noc(C)c1NC(=O)Nc1ccc2c(c1)C(=O)N([C@@H](C)CO)C[C@@H](C)[C@H](CN(C)S(=O)(=O)c1cccs1)OCCCC[C@@H](C)O2	1 ± 0.02
COc1ccc(CNC(=O)N(C)C[C@@H]2OCc3ccccc3-c3c(n(C)c4ccccc34)C(=O)N([C@@H](C)CO)C[C@@H]2C)cc1	0.966 ± 0.15
CN1c2ccc(Br)cc2[C@@H]2[C@@H](CCN2C(=O)Nc2cccc(F)c2)[C@@H]1CO	1.07 ± 0.041
C[C@@H]1CCCCO[C@H](CN(C)C(=O)NC2CCCCC2)[C@H](C)CN([C@@H](C)CO)C(=O)c2cc(N(C)C)ccc2O1	1.0461 ± 0.00037
CCCN1[C@@H]2c3ccc(-c4ccccc4F)c(=O)n3C[C@@H]2[C@@H](CO)[C@@H]1C(=O)N1CCOCC1	0.97 ± 0.086
O=C(CC1CC1)N1CC(=O)N2[C@@H](CO)[C@@H](c3ccc(C#Cc4cccc(F)c4)cc3)[C@@H]2C1	1 ± 0.075
CO[C@H]1CN(C)C(=O)c2ccc(NC(=O)NC(C)C)cc2OC[C@@H](C)N(Cc2ccc(-c3ccccn3)cc2)C[C@H]1C	1.06 ± 0.069
C/C=C/c1ccc2n(c1=O)C[C@@H]1[C@@H](CO)[C@H](C(=O)NCc3ccc4c(c3)OCO4)[C@H]2N1C(=O)COC.C/C=C\c1ccc2n(c1=O)C[C@@H]1[C@@H](CO)[C@H](C(=O)NCc3ccc4c(c3)OCO4)[C@H]2N1C(=O)COC	1.08 ± 0.046
CCN(C[C@@H]1[C@@H](c2ccccc2)[C@H](CO)N1S(C)(=O)=O)C(=O)C1CCCC1	0.972 ± 0.036
CS(=O)(=O)N1Cc2cc(C(=O)O)nc(-c3cccc(-c4ccccc4F)c3)c2[C@@H]1CCO	1.06 ± 0.013
CO[C@@H]1CC[C@@H]2CCN(C)C(=O)CC3(CCCCC3)CN(C)C(=O)c3cc(C#N)ccc3OC[C@H]1O2	1.0482 ± 0.00013
CC(C)(O)C#Cc1ccc([C@@H]2[C@H](CO)N3CCCCN(S(C)(=O)=O)C[C@@H]23)cc1	1.04 ± 0.0088
CN1c2ccc(-c3cccc(C#N)c3)cc2[C@@H]2[C@@H](CCN2C(=O)Cc2ccccn2)[C@H]1CO	1.08 ± 0.061
O=C1CN(S(=O)(=O)c2cccc(F)c2)C[C@H]2[C@H](c3ccc(C4=CCCC4)cc3)[C@@H](CO)N12	0.99159 ± 0.00054
N#C[C@@H]1[C@@H](c2ccccc2-c2cccc(F)c2)[C@H](CO)N1C(=O)NC1CCCCC1	1.08 ± 0.12
O=C(Cc1ccccc1)N1C[C@H]2[C@@H](c3ccccc31)[C@@H](CO)N2S(=O)(=O)c1ccccc1	0.98 ± 0.16

SMILES	viability index
C[C@H]1COCc2cnnn2CC[C@@H](Cc2ccccc2)C(=O)N1	1.06 ± 0.027
C[C@H](CO)N1C[C@H](C)[C@@H](CN(C)Cc2ccc3c(c2)OCO3)Oc2ccc(NS(=O)(=O)c3cn(C)cn3)cc2CC1=O	1.07 ± 0.046
CCS(=O)(=O)N1CC(=O)N2[C@@H](CO)[C@@H](c3ccc(C#CC4CCCCC4)cc3)[C@@H]2C1	1.16 ± 0.038
COc1ccccc1NC(=O)N1C[C@@H](O)COC[C@H]2O[C@H](CC(=O)NCCc3ccncc3)CC[C@@H]21	1.03 ± 0.067
COc1ccccc1CN1[C@H](CO)[C@@H](c2ccccc2)C12CN(C(=O)c1cnccn1)C2	1.09 ± 0.013
COCC(=O)N1CC[C@H]2[C@H](CO)Nc3ccc(C#Cc4ccc(F)cc4)cc3[C@H]21	0.99 ± 0.074
CCCC(=O)N1C[C@@]2(C1)CN([C@@H](CO)c1c2c2ccc(OC)cc2n1C)C(=O)Nc1cccc(F)c1	0.997 ± 0.13
O=C(C[C@H]1C=C[C@H](NC(=O)c2ccc3c(c2)OCO3)[C@@H](CO)O1)NC1Cc2ccccc2C1	0.983 ± 0.067
O=C(O)C[C@H]1C=C[C@@H](NC(=O)Nc2cc(F)ccc2F)[C@H](CO)O1	0.981 ± 0.069
CCCC(=O)Nc1ccc2c(c1)OC[C@@H](C)N(CC1CCOCC1)C[C@@H](C)[C@H](OC)CN(C)C2=O	0.964 ± 0.1
O=C(Nc1ccccc1)N1CC(=O)N2[C@H](C1)[C@@H](c1ccc(C#CC3CCCCC3)cc1)[C@@H]2CO	1.01 ± 0.02
Cc1noc(C)c1NC(=O)Nc1ccc2c(c1)C(=O)N(C)[C@H]1CC[C@H](CC(=O)Nc3ccc4c(c3)CCCC4)O[C@@H]1CO2	1.086 ± 0.0014
C[C@H](CO)N1C[C@H](C)[C@H](CN(C)Cc2ccc3c(c2)OCO3)Oc2c(NC(=O)c3ccncc3)cccc2C1=O	0.948 ± 0.033
COc1ccc2c3c([C@@H](CO)N(C[C@]33CCN(CC3)C(=O)Nc3ccc(F)cc3F)C(=O)Nc3ccc(F)cc3)n(C)c2c1	1.08 ± 0.07
C[C@H](CO)N1C[C@H](C)[C@H](CN(C)C(=O)Nc2cccc(C(F)(F)F)c2)OCc2cn(nn2)CCCC1=O	1.01 ± 0.036
CC(=O)N1CC2(C1)[C@@H](c1ccc(-c3cccc(C#N)c3)cc1)[C@@H](CO)N2CCC(F)(F)F	1.05 ± 0.024
CO[C@H](CN(C)S(=O)(=O)c1ccc(F)cc1)[C@@H](C)CN(Cc1ccccc1Cl)[C@H](C)CO	1.001 ± 0.007
CO[C@@H]1CN(C)C(=O)c2cc(NC(=O)Nc3ccccc3F)ccc2OC[C@@H](C)N(C(=O)c2cnccn2)C[C@H]1C	1.05 ± 0.043
C[C@H](CO)N1C[C@H](C)[C@H](CN(C)Cc2ccccc2)OCc2cn(nn2)CCCC1=O	0.976 ± 0.066
N#C[C@@H]1[C@@H](c2ccccc2)[C@@H](CO)N1S(=O)(=O)c1cccc(F)c1	1.12 ± 0.05
O=C(C[C@@H]1CC[C@H](NS(=O)(=O)c2ccc(F)cc2)[C@H](CO)O1)N1CCN(c2ccccc2)CC1	1.04 ± 0.043
COc1ccc2c3c([C@@H](CO)N(C[C@]33CN(C3)C(=O)c3ccccc3F)C(=O)Nc3ccccc3F)n(C)c2c1	0.97 ± 0.053
O=C(C[C@@H]1CC[C@@H]2NC[C@@H](O)COC[C@H]2O1)N1CCc2ccccc2C1	1.03 ± 0.16

SMILES	viability index
COc1ccc2c3c([C@@H](CO)N(C[C@]33CCN(Cc4nccs4)CC3)S(C)(=O)=O)n(C)c2c1	1.09 ± 0.015
CNC[C@@H]1Oc2ccc(NS(=O)(=O)c3ccc(OC)cc3)cc2C(=O)N([C@H](C)CO)C[C@H]1C	0.967 ± 0.061
COc1ccc2c3c([C@@H](CO)N(C[C@]33CCN(Cc4cccnc4)CC3)S(=O)(=O)c3ccc(C)cc3)n(C)c2c1	0.971 ± 0.04
N#Cc1cccc(-c2ccc3c(c2)[C@H]2[C@H](CCN2Cc2ccc4c(c2)OCO4)[C@@H](CO)N3)c1	1.14 ± 0.03
Cc1ccc(S(=O)(=O)N(C)C[C@@H]2OCCCC[C@H](C)Oc3ccc(NC(=O)c4ccncc4)cc3C(=O)N([C@H](C)CO)C[C@@H]2C)cc1	1.09 ± 0.029
CO[C@H]1CN(C)C(=O)c2ccc(NC(=O)Nc3cc(F)ccc3F)cc2OC[C@H](C)N(C(=O)c2ccccn2)C[C@H]1C	1.05 ± 0.059
C[C@@H]1CCCCO[C@H](CN(C)Cc2ccc3c(c2)OCO3)[C@@H](C)CN([C@H](C)CO)C(=O)c2cc(NS(=O)(=O)c3cn(C)cn3)ccc2O1	0.999 ± 0.018
COc1cccc(S(=O)(=O)N2CCCCN3[C@H](CO)[C@H](c4ccc(C#CCC(C)C)cc4)[C@@H]3C2)c1	1 ± 0.078
C[C@@H]1CN([C@@H](C)CO)C(=O)c2c(c3ccccc3n2C)-c2ccccc2CO[C@@H]1CN(C)C(=O)[C@H](Cc1ccccc1)N(C)C	0.942 ± 0.2
O=C(C1CCCCC1)N1CC(=O)N2[C@@H](CO)[C@@H](c3ccc(-c4ccccc4F)cc3)[C@@H]2C1	1.04 ± 0.034
N#C[C@@H]1[C@H](c2ccccc2C2=CCCCC2)[C@@H](CO)N1C(=O)c1ccccn1	1.03 ± 0.066
C[C@@H]1CN([C@@H](C)CO)C(=O)c2ccccc2-c2ccccc2CO[C@@H]1CN(C)Cc1cccc2c1OCCCO2	1 ± 0.11
C[C@H]1CN([C@@H](C)CO)C(=O)Cc2cc(NC(=O)Nc3ccc(F)cc3)ccc2O[C@H]1CN(C)S(C)(=O)=O	0.931 ± 0.081
CO[C@@H]1CN(C)C(=O)c2cc(NC(=O)c3ccc4c(c3)OCO4)ccc2OC[C@@H](C)N(CCC(F)(F)F)C[C@@H]1C	1.008 ± 0.0018
CC(=O)N1[C@@H](CO)[C@@H](c2ccccc2)[C@@H]1CN(CC(C)C)C(=O)c1ccccn1	0.976 ± 0.064
CO[C@@H]1CN(C)C(=O)c2ccc(NC(=O)c3ccccc3F)cc2OC[C@@H](C)N(C)C[C@@H]1C	1.068 ± 0.009
C[C@H]1CN([C@@H](C)CO)C(=O)Cc2cc(N(C)C)ccc2O[C@@H]1CN(C)Cc1ccc(-c2ccccc2)cc1	1.08 ± 0.05
CO[C@H](C(=O)N(C)C[C@H]1OCc2ccccc2-c2ccccc2C(=O)N([C@H](C)CO)C[C@@H]1C)c1ccccc1	1.07 ± 0.06
O=C(C[C@H]1CC[C@@H]2[C@H](COC[C@H](O)CN2C(=O)c2ccccc2F)O1)NCc1ccc(F)cc1	1.02 ± 0.055
O=C(c1ccc(F)cc1)N1CC(=O)N2[C@@H](CO)[C@H](c3ccc(C#CCC4CCCC4)cc3)[C@@H]2C1	1.03 ± 0.058
CCCC(=O)N1C[C@]2(CCN(CC2)S(C)(=O)=O)c2c([nH]c3cc(OC)ccc23)[C@@H]1CO	1.02 ± 0.06
COc1ccc(NC(=O)N(C)C[C@@H]2OCCCC[C@H](C)Oc3ccc(NC(=O)c4ccncc4)cc3C(=O)N([C@@H](C)CO)C[C@@H]2C)cc1	1.05 ± 0.013
